The supplement of paper PMC3334620
Whole data set: some 33,000 sequences, median “E-score (-0.5 to 0.5)” near -0.012, cut for the highest 2% near 0.29. Some of the results follow.

target: T1, Ybr033w (UniProt P38073); test: PBM E-score (8-mer binding enrichment) (E-score (-0.5 to 0.5)); higher = stronger / more preferred TF binding; most listed sequences are background and not binding sites; details: protein concentration: 200 nM; construct: GST-full length
T1 sequence: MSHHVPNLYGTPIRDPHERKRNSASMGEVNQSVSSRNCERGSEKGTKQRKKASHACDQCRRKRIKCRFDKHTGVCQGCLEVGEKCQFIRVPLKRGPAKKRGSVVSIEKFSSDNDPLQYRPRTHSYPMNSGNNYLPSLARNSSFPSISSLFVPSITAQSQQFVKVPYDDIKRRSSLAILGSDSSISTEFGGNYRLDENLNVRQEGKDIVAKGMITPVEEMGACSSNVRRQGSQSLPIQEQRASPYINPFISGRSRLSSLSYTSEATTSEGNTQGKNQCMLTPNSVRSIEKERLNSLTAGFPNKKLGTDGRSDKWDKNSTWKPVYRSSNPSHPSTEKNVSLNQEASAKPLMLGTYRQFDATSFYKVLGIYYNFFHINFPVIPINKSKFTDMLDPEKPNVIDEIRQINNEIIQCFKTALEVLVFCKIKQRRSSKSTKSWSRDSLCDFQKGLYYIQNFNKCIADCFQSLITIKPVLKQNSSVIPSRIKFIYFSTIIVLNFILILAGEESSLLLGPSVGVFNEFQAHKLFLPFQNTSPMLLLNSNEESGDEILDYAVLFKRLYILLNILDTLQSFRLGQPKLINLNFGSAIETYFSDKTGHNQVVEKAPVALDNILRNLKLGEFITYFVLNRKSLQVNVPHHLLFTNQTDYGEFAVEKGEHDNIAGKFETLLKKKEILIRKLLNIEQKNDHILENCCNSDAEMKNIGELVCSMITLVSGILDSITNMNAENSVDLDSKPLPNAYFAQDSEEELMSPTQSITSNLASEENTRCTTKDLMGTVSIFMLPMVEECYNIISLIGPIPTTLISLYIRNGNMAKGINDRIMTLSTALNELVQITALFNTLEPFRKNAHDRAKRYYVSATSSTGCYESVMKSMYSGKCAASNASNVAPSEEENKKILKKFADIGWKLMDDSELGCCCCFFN
Summary of the method: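 Using PURExpress in vitro transcription/translation, GST-tagged yeast transcription factors were made in full-length or DNA-binding-domain form. These were applied at about 100-200 nM to double-stranded universal all-10-mer Agilent arrays, and bound protein was detected with fluorescent anti-GST. Scans were normalised with masliner before the Universal PBM Analysis Suite assigned E-scores to ungapped eight-base words pooled with their reverse complements.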

Sequence	PBM E-score
CGTCTATC	-0.0447
CGAACTAG	-0.0932
CTTGTAGA	-0.145
GTACCCAC	-0.116
AGACCGCC	-0.0316
ATCACCAA	0.165
CCCGGACG	-0.26
ATCCCACC	-0.0372
CCCAGAGG	-0.313
CGCATTTA	0.228
ATCCGAAG	0.118
TTCCGCAA	0.153
AGGCGCAA	-0.0276
ATATCCCG	0.202
CTCAGATA	0.131
AACTTCGA	0.0183
CAGGCGCA	-0.136
AAGTATGT	0.153
CTTATTGC	-0.19
AATAACAT	0.199
AGAACGTG	0.0546
CGGTGGGC	-0.214
CAACCTTG	0.0694
TTGCGCAA	0.158
TAGGCGGA	0.172

Sequence	PBM E-score
AGCAGTGC	-0.092
ACATCGAC	-0.0961
TAGGGTCA	-0.0821
AATTTACT	0.311
CTTCGACC	-0.0409
AATTTGCC	0.0242
ATACCAAT	0.201
CAATGCCG	-0.153
GATTAGCC	0.0427
AAATACGG	0.0582
TATTCTCA	0.0372
CCCTAGTC	-0.295
AGGCTCTC	-0.293
CTGACGCA	-0.228
GAAGGCTC	-0.0655
CCACCGTA	-0.0489
TCTTCGAA	-0.0382
CTAAGAAC	0.0257
ATAAGAAC	0.178
CACATGAA	-0.046
ACGAGTAG	0.017
CAGCACGG	0.0148
ATCAGCGG	-0.089
AACTTATA	0.353
GCAGTGAA	0.175

Sequence	PBM E-score
AACGGTGT	-0.113
CACACATA	0.00689
CAGTACTC	0.0143
CCGTGACC	-0.197
CTGTGCAA	-0.019
TACGTCAA	0.0316
CCTGAGCG	-0.121
AACTAATG	0.29
AACCCAGA	0.0447
ATTCCTTA	0.274
ACCATTAA	0.28
TGGTGTAA	-0.0487
AACTAAAA	0.237
AAACTACG	0.0517
CACTCCCA	-0.0427
CGCATGAG	-0.203
AACGTATA	0.2
ATTCGTCG	0.143
ATTACAAT	0.0893
CCCCTCGC	-0.168
AATGCAGA	0.122
CGTTCGAA	0.116
GCTGATAA	0.207
GGACTACA	0.0454
CGGAAAAC	0.0147

Sequence	PBM E-score
CATAGATC	0.00953
CTTCGTCC	-0.165
GAGCGGTA	-0.0319
ACAAAAGA	0.226
TAAAGCGA	0.106
ATGGGTAC	0.0672
CACGATGC	-0.313
AGTTTAGG	-0.0698
AACCATCT	0.00912
TCTTGTCA	0.00613
GATCACTA	0.0142
AACGTCCG	-0.109
TAAATTTA	0.289
CGATAATA	0.0851
AGTCCGCA	-0.0267
CGTCCGTC	-0.265
TACGCGTA	-0.0915
GTGGAGAA	0.0635
CCTTCGCA	-0.107
GCTACCTA	0.0581
GTTCCCTA	0.0774
ACTACGAA	0.117
GTGATGCA	0.172
AAACGGCC	0.00201
CCTGGAAA	0.034

Sequence	PBM E-score
CGGGTTGA	-0.147
ACGCAACA	0.00552
GATCACCA	0.00992
CTCAGCAC	-0.0418
CACCAGCA	-0.0753
ATGGCTGG	-0.166
ACATCCGT	0.0926
CCGGGGTC	-0.258
ATCAAGGC	0.0014
CTACTAGA	0.0742
CCCTTTAG	-0.235
CTAACCAG	-0.0178
CAAATATG	0.0991
TAATGCAA	0.143
ATCTCTCC	-0.0659
AAGACGAA	0.0937
AAACAGGA	0.0833
GATCAATC	0.184
GCCAACGC	-0.207
CAGCGCTG	0.00506
CCGTAGGA	-0.167
GACCGCCC	-0.188
AAGTCTGT	-0.0835
CTACCGTA	0.0347
ACCGTTTC	-0.0929

Sequence	PBM E-score
CGGGTTGC	-0.0517
CCGACAGC	-0.196
ATACGAAG	0.18
AAATAAAC	0.253
AGGGGATA	-0.0855
CCTTAACA	-0.102
AGAGTCTC	-0.116
CCGCAATC	0.045
ATTTAGTG	0.256
AGGTGTAT	0.0888
CTACTCCC	0.121
ATGATATA	0.178
CTTGGGAC	-0.136
CGTAAACG	-0.0894
ACGGTTAC	0.155
ATAGCACA	0.108
ATACAAAT	0.252
TAATAGCA	-0.00047
ATCTTCCG	0.438
ACCGATCT	-0.207
AAGCATCG	0.0597
CGATGAAG	0.128
AGACGAAT	0.203
GCCCCCGA	-0.397
ATTTCTTA	0.195

Sequence	PBM E-score
ACTGTTGG	0.0493
GTCCGCGA	-0.115
ATCGCCGC	-0.137
AAGGTGCC	-0.223
ACGGCTTC	-0.045
GAGAATGA	0.122
GTTGATAA	0.259
GGCCTCCA	-0.221
CGACCACG	0.0048
CTGCAGCC	-0.177
AAGCTGAA	-0.0362
GGAGCACC	-0.205
ACTTGCCG	-0.144
ATCGAGTG	0.0677
CTGACAAC	-0.126
AGTATGGC	-0.207
AGGTTTCG	-0.0132
ATCAGGAC	-0.0489
CGGATCGC	-0.245
GGACGGCA	-0.0865
GTGTGACA	-0.106
CGTGGCCA	-0.368
